According to the supplement of paper PMC3334620:
Whole data set: some 33,000 sequences, median “E-score (-0.5 to 0.5)” near -0.032, cut for the highest 2% near 0.36. Some of the results follow.

What follows are sequences tested against T1, Sko1 (UniProt Q02100) (assay: PBM E-score (8-mer binding enrichment) (E-score (-0.5 to 0.5)); higher = stronger / more preferred TF binding; most listed sequences are background and not binding sites). Conditions: protein concentration: 200 nM; construct: GST-full length.
T1 sequence: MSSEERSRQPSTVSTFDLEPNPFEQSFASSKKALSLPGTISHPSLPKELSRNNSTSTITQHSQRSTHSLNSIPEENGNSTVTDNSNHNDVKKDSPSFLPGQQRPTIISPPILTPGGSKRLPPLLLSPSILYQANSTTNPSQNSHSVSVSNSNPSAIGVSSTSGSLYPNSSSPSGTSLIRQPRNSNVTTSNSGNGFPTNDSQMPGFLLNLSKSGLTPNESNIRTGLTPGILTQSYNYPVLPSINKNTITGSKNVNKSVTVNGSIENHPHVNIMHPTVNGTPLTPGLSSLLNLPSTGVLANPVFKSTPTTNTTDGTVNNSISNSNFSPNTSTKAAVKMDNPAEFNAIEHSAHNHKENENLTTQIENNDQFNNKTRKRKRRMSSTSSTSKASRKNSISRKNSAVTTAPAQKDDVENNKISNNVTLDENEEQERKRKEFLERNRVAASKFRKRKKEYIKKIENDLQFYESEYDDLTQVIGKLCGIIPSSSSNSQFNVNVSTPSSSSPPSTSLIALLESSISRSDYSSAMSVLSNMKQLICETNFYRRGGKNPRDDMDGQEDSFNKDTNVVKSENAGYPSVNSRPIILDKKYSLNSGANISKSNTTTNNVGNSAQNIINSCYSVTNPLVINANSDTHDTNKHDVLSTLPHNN
Outline: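 Masliner-normalised scans of fluorescent anti-GST signal were the basis for scoring. That signal came from GST-tagged yeast transcription factors applied at about 100-200 nM to double-stranded universal all-10-mer Agilent arrays on fresh or once-stripped slides. Each ungapped eight-base word, pooled with its reverse complement, received an E-score from the Universal PBM Analysis Suite.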

Sequence	PBM E-score
CCCTGCCA	-0.285
CCAGGCAG	-0.206
GGTATTGA	-0.00694
AATACACT	0.18
GCCTTTAC	0.118
GGTCTATA	0.109
AGTGCTTA	-0.0239
GTTGGGCA	-0.109
CTTGCCAC	-0.0129
AGTGGGCC	-0.232
GTGTAAAA	0.0817
CTCCTATC	-0.113
ATGCGGGA	-0.043
ATTTTAAA	0.174
AAGTAGGT	-0.0455
CGGATTGC	-0.0632
AGCGCAAC	0.0563
CACTTCAC	-0.0697
ATGTTCTG	0.0273
CCATTCCG	-0.234
TCAAACAA	0.0999
CTTTGAAC	-0.146
AAGTCAAG	-0.118
GCATTAGC	-0.012
CGGTCGAA	-0.179

Sequence	PBM E-score
ATTCTCCC	-0.212
GGACCTCC	-0.257
CAGTCTGA	-0.011
ATCGCCTA	-0.0927
GGGTACCA	-0.238
ACAGAGTA	0.0245
AATAAGGC	0.154
GAGAAATA	0.144
ATCCAGAA	0.142
ATTAAGAA	0.163
AGACAACG	0.0408
CGGATGAG	-0.107
ACGGTAGA	-0.0475
AATTATAC	0.283
AAAAGAGA	0.0471
CCTACACA	-0.0474
ACCCATCG	-0.0698
ATGAGCAG	-0.0555
ACTTTGCG	0.172
ACCATCCG	-0.0749
TCAGCTGA	0.245
ATGCCGGG	-0.255
AACTTTGC	0.0103
CGAGTTTA	-0.0226
GTTGCTTA	0.0853

Sequence	PBM E-score
AACATCCG	-0.0298
GCGTGTTA	0.114
AAACCGAA	-0.0959
CCAAATTA	0.201
CCCTAACG	-0.0383
CCACTTTA	0.0473
CTGAGGTA	-0.0742
CACTAAGG	-0.178
ACACATAT	0.187
CAATGACC	0.0293
GCGTGATA	0.145
AATAGCCG	0.0148
AAAGTGCC	-0.219
GCTATTGA	0.0908
CATTGTTC	-0.0199
ACAGTGCA	-0.0316
CACGGATA	0.0485
ACTTCATA	0.136
CTGCCAGC	-0.133
CCAGAGTA	-0.152
ACTGCAAG	-0.149
CACTTATA	0.0961
TCTTAGAA	0.108
GGAGAGTA	-0.2
ACTTTTGA	0.124

Sequence	PBM E-score
ACCATCGC	0.112
ACAATACG	0.386
ACACACTG	-0.0628
CGACTTCA	-0.0915
AGGATTGG	-0.0655
CCCAACCG	-0.0724
CACAAGTA	-0.026
AGAAGCAA	0.0603
AACCGCTC	-0.0488
AGAGATCG	-0.00906
CATGTAAG	0.117
CTAAGGCC	-0.204
AATCCACT	0.028
GCCTCGCA	0.026
CCGAGGAA	-0.14
ACGTGTCT	0.381
CGTCATGA	0.471
ATACCGAG	-0.178
CGTGAACA	0.234
AATTAGGC	0.175
ATATGTGC	-0.0249
CTCATTTC	-0.07
ACTGGTAC	-0.0541
ATTTGCCC	-0.132
GGGTATTA	-0.134

Sequence	PBM E-score
ACGAGGTC	0.0396
ACCCGAAA	-0.0398
GCGGGTAA	-0.267
AGCATTAT	0.0995
CATAGAGG	-0.213
GGCCGTAC	0.0353
CAGTCATC	-0.204
CCACCTGC	-0.21
CGTACCGA	0.186
CCTTTCTC	-0.138
CTGCATCC	-0.177
ACAAACAA	0.148
ATATATTC	0.254
CCTAATTA	0.146
CCCCCATC	-0.202
AATCCGGC	-0.201
GTCCTTAA	0.039
TAGGTCAA	0.161
CGTAATAG	0.435
TCCGTCCA	0.0515
ATAGTCTA	-0.0569
CAAGTTTA	0.153
GCGGTTAC	0.068
GATCGAAC	0.00066
CCCAGTGC	-0.174

Sequence	PBM E-score
GTTTTGCA	0.0831
AGTTTCTG	-0.0675
GAGCTTCA	0.0807
AGCTCTCA	-0.143
CGAACGAA	0.0921
CTAAGCAA	-0.0834
GTTTAGTA	0.204
AAGCTCTG	-0.177
ACGAATTG	0.263
TAACAGCA	0.0687
GCTGAGGA	-0.205
ACGGTTAG	-0.216
AATCCGAG	-0.0399
AGGAATGC	-0.204
AACAGCAC	0.138
CTTTGACC	0.0262
GGCCTTGA	-0.223
TCTTTCAA	-0.0686
GCATCGGA	-0.074
CGGATTCA	-0.246
ACGTACCA	0.444
AATCTCTC	-0.0069
ACCACTCG	-0.0566
CCCTCCTC	-0.212
GTAGTGGA	0.11

Sequence	PBM E-score
AGTCTTTG	-0.131
AAATAAGT	0.133
ATAGCAGC	-0.16
ACCCTAGC	-0.096
ATACATAC	0.267
ATGCACGA	0.115
CACAAACC	-0.0602
AACTACAT	0.0919
ACTTCTAT	-0.0271
CCTCCAGG	-0.416
CTCAGGAC	-0.0872
CATCTCTA	0.144
AAGAACCG	-0.0444
ACATTCCT	-0.115
CCCCCAAG	-0.251
AGCCGAAC	-0.00408
CCAGCACG	-0.0704
GACCGCAA	-0.201
GCAACCTA	-0.062
GCGGTTCA	-0.136
CGCCGATC	-0.15
TGGGACAA	-0.198
